The campaign covered roughly 150,000 compounds. About 540 (0.36%) showed an effect of 50% or more. This is one part of the list.
What follows are compounds tested on Plasmodium falciparum (assay: Primary screen in NF54 nanoGlo assay, in single point, at 2uM, 72h; a lower Z score goes with more inhibition). Conditions: timepoint 72 hour.
Assay type: functional, Erythrocyte
For `C[C@H](NC(=O)C1(N2CCCC2)CCCCC1)c1ccc2c(c1)OCCO2`, the “% Inhibition” value was -8% and the Z score was 1.01. For `Cc1cc(C)c(CNC(=O)c2cc(Cl)c[nH]2)c(=O)[nH]1`, the “% Inhibition” value was -14% and the Z score was 2.42. For `CCc1nn(-c2ccccc2)c(N(C)C)c1CN(Cc1ccccc1)C(=O)c1ccc(F)cc1`, the “% Inhibition” value was 3% and the Z score was -0.24. With `Fc1ccccc1C1(CNc2ncnc3oncc23)CC1` the “% Inhibition” value was -3% and the Z score was 0.42. With `COCCN1C(=O)N[C@@](Cc2cccc(OC)c2)(C2CCN(Cc3cccc(Cl)c3)CC2)C1=O` the “% Inhibition” value was -9% and the Z score was 1.28. With `CCn1cnnc1CN(C)C(=O)c1cc(Cn2ccnc2C(C)C)[nH]n1` the “% Inhibition” value was 0% and the Z score was 0.01. `COc1ccc(CCC(=O)N2CCCN(C(=O)CCn3cnc4ccccc4c3=O)CC2)cc1` was tested, and the “% Inhibition” value was -10% and the Z score was 0.97. With `OC[C@]1(O)CCCN(Cc2ccccc2OCCCN2CCOCC2)C1` the “% Inhibition” value was -12% and the Z score was 1.9. In the case of `Cc1ccoc1C(=O)NC[C@H]1CCN(Cc2ccc3ccccc3n2)C1`, the “% Inhibition” value is reported as -13% and the Z score is reported as 1.76. In the case of `Cc1cccc(C(=O)N2C(C(=O)N(C)C)C[C@@H]3OCC[C@@H]32)n1` (stereo partly drawn), the “% Inhibition” value is reported as 4% and the Z score is reported as -0.68. For `CC1CC(C(=O)Nc2nc3c(s2)CC[C@H](C(=O)O)C3)C1` (stereo partly drawn), the “% Inhibition” value was -15% and the Z score was 1.56. In the case of `Cc1cc(C)n(-c2cncc(NC3CCN(CC(F)F)CC3)n2)n1`, the “% Inhibition” value is reported as -5% and the Z score is reported as 0.6. `COc1ccc(-c2nc(NCc3ccc(Cn4cccn4)cc3)[nH]c(=O)c2C#N)cc1` was tested, and the “% Inhibition” value was 5% and the Z score was -0.82. For `Cc1cc(C#N)c(N2C[C@@H](CN3CCCCC3)[C@@H](CO)C2)nc1C`, the “% Inhibition” value was -2% and the Z score was 0.27. In the case of `CO[C@H]1CCN(c2ncnc(C)c2F)CC1(C)C`, the “% Inhibition” value is reported as -6% and the Z score is reported as 0.76. In the case of `Cc1nc[nH]c1CN1C[C@H]2CC[C@@H](C1)N(C(=O)c1ccc(C#N)nc1)C2`, the “% Inhibition” value is reported as -6% and the Z score is reported as 1.15. `OCc1cc(C(F)(F)F)ccc1-c1cnc2c(c1)CCCO2` was tested, and the “% Inhibition” value was -4% and the Z score was 0.46. `COc1ccc(C(=O)NC(=O)NC2(C(Cl)(Cl)Cl)OCCO2)cc1` was tested, and the “% Inhibition” value was 14% and the Z score was -1.9. With `CC(C)(C)OC(=O)N[C@@H](C(=O)N1CCCOCC1)c1cscn1` the “% Inhibition” value was -6% and the Z score was 0.81. With `Cc1cccnc1CC(=O)NCC[C@H]1CCCOC1` the “% Inhibition” value was 6% and the Z score was -0.87. For `O=c1cnc2ccccc2n1CCOc1ccc(F)cc1`, the “% Inhibition” value was -1% and the Z score was 0.1. For `O=C1CC[C@]2(C(=O)NCCN3CCOCC3)CCCC=C2N1Cc1ccccc1`, the “% Inhibition” value was -9% and the Z score was 0.84. With `Cc1ccc(-n2cc(-c3ccccc3)nc2NC(=O)CN(C[C@H]2CCCO2)C(=O)c2ccccc2)cc1F` the “% Inhibition” value was -3% and the Z score was 0.54. For `CC(C)C(CNC(=O)N1CCN(C)C(=O)C1)C(C)C`, the “% Inhibition” value was -12% and the Z score was 1.85. In the case of `CC(=O)Nc1c(-c2ccccn2)nsc1C(=O)N[C@@H](C)c1ccccc1`, the “% Inhibition” value is reported as 0% and the Z score is reported as 0.08. With `COc1ccccc1Cc1nnc2n1CCS(=O)(=O)CC2` the “% Inhibition” value was -7% and the Z score was 0.79. `CC(C)CN(CC(N)=O)c1ccnc(C(C)(C)C)n1` was tested, and the “% Inhibition” value was -13% and the Z score was 1.49. In the case of `CC(C)(C)C(=O)Nc1cc(Br)c(O)c(Br)c1`, the “% Inhibition” value is reported as 30% and the Z score is reported as 0.07. For `Cc1cccn2cc(C(=O)NCCCN3CCOCC3)nc12`, the “% Inhibition” value was -5% and the Z score was 0.72. In the case of `C[C@H](OC1CCCCCC1)C(=O)NCc1nncn1C`, the “% Inhibition” value is reported as -7% and the Z score is reported as 0.75. With `CN(C)C(=O)CCc1ccc(CC2CCN(Cc3cccc4[nH]ccc34)CC2)cc1` the “% Inhibition” value was -17% and the Z score was 2.22. With `O=C(CCc1ccc2c(c1)OCCO2)NC1CC1` the “% Inhibition” value was -4% and the Z score was 0.61. In the case of `Cc1cnc(C(=O)N(C[C@H]2CCCO2)C2CCC(C)CC2)cn1` (stereo partly drawn), the “% Inhibition” value is reported as 0% and the Z score is reported as 0.08. With `Cc1ncoc1C(=O)N1CCCC[C@H]1c1nc2ccccc2o1` the “% Inhibition” value was 1% and the Z score was -0.1. In the case of `CC(C)(C)C(=O)NC[C@H](O)c1c(Cl)cccc1Cl`, the “% Inhibition” value is reported as 2% and the Z score is reported as -0.4. With `C[C@@H](Cc1ccc(O)cc1)N1CCC(CCC(=O)NCc2cccnc2)CC1` the “% Inhibition” value was -8% and the Z score was 0.71. In the case of `CCC=CCCn1c(=O)c(Br)cn(C)c1=O`, the “% Inhibition” value is reported as -9% and the Z score is reported as 1.39. With `Cc1nn(C)cc1C(=O)N1CCCc2ccccc21` the “% Inhibition” value was -18% and the Z score was 2.07. With `COc1ncccc1NC(=O)N1CCC[C@H]1c1nc(-c2ccccc2)c(C(C)C)o1` the “% Inhibition” value was -3% and the Z score was 0.42. `O=C(c1cc(O)c(OCc2ccccc2Cl)cn1)N1CCc2ccccc2C1` was tested, and the “% Inhibition” value was 3% and the Z score was -0.37. In the case of `CCC(C)C1CN(Cc2ccc(C)nc2)CCN1CC(=O)Nc1ccc(OC)c(OC)c1` (stereo not drawn), the “% Inhibition” value is reported as -7% and the Z score is reported as 0.96. In the case of `C[C@H](CNC(=O)N1CCC(O)(CO)CC1)Cc1cccc2ccccc12`, the “% Inhibition” value is reported as 4% and the Z score is reported as -0.79. For `C(=Cc1ccccc1)CN1CCC[C@H](Cn2cncn2)C1`, the “% Inhibition” value was -2% and the Z score was 0.29. In the case of `Cc1ccc([C@H]2CN(C(=O)c3c[nH]nc3-c3ccccc3)C[C@@H]2N(C)C)cc1`, the “% Inhibition” value is reported as -14% and the Z score is reported as 1.58. `c1cc2c(cc1CN1CCN(c3nnc(C4CC4)s3)CC1)CCO2` was tested, and the “% Inhibition” value was -10% and the Z score was 0.87. For `Cc1ccc(C=CCC(=O)N[C@@H](C#N)C(C)C)cc1`, the “% Inhibition” value was -3% and the Z score was 0.53. With `O=C(CCN1C[C@H]2CC[C@H]1C2)NCc1cccnc1Oc1ccc(F)c(F)c1` the “% Inhibition” value was -21% and the Z score was 2.37. In the case of `C#CCNC(=O)NCCOCc1cccc(Cl)c1`, the “% Inhibition” value is reported as -13% and the Z score is reported as 2.04. In the case of `O=C1NCCN1CC1CCN(C(=O)c2cc3ccncc3s2)CC1`, the “% Inhibition” value is reported as -3% and the Z score is reported as 0.53. `Cc1nc2ncccn2c1-c1csc(N)n1` was tested, and the “% Inhibition” value was -14% and the Z score was 1.36. `CCOC(=O)C1CCN(c2cc(C)nc3nc(-c4ccccc4)nn23)CC1` was tested, and the “% Inhibition” value was -4% and the Z score was 0.8. For `COCc1nc(C)cc(NCc2nc(C)cc(=O)[nH]2)n1`, the “% Inhibition” value was 4% and the Z score was -0.81. `Cc1c[nH]c(CN2CCC[C@@](O)(CO)C2)c(C)c1=O` was tested, and the “% Inhibition” value was 10% and the Z score was -1.38. `O=C(c1ccc2nncn2c1)N1CCOc2c(Cl)cccc21` was tested, and the “% Inhibition” value was 29% and the Z score was -3.29. For `CC(C)c1ccc(C2c3[nH]c4ccccc4c3C[C@H]3C(=O)N(C4CCN(Cc5ccccc5)CC4)CC(=O)N23)cc1` (stereo partly drawn), the “% Inhibition” value was -3% and the Z score was 0.37. `CC(C)c1noc(-c2ccnc(N3CC[C@@H](C(F)(F)F)C4(CCC4)C3)c2)n1` was tested, and the “% Inhibition” value was -16% and the Z score was 2.04. In the case of `CC(=O)N1c2ccccc2C(=O)[C@@H]1N1CCN(c2ccccc2)CC1`, the “% Inhibition” value is reported as -13% and the Z score is reported as 1.77. For `Cc1nc2ccc(F)cc2c(N2CCC(c3nncn3C)CC2)c1C`, the “% Inhibition” value was 0% and the Z score was -0.03. With `Cc1ccc(S(=O)(=O)N2CCC[C@H](Cn3c(C4CC4)nc4cccnc43)C2)cc1` the “% Inhibition” value was -13% and the Z score was 1.93. For `CC(C)(C)OC(=O)N1CCC1CN1CCCC(c2nnc(N)o2)C1` (stereo not drawn), the “% Inhibition” value was 32% and the Z score was -3.65. With `CS(=O)(=O)N(CC(N)=O)c1cccc(Br)c1` the “% Inhibition” value was -1% and the Z score was 0.06. For `COc1ccccc1C(=O)N(Cc1cccs1)c1cccc(Cl)c1`, the “% Inhibition” value was 13% and the Z score was -1.53. `COCCOc1cc(-c2noc([C@@H]3CCCN3CC(C)C)n2)ccn1` was tested, and the “% Inhibition” value was 15% and the Z score was -1.78. In the case of `O=C(Cn1cnc2ccccc21)N1CCC[C@H](Oc2ccncn2)C1`, the “% Inhibition” value is reported as 7% and the Z score is reported as -1.02. `Oc1nc2cc(Cl)c(Cl)cc2nc1-c1ncc(C(F)(F)F)cc1Cl` was tested, and the “% Inhibition” value was -8% and the Z score was 1.07. With `Cc1cc(C[C@H](CC(=O)c2ccccc2)c2ccccc2)on1` the “% Inhibition” value was 5% and the Z score was -0.56. For `CC[C@@H](C(=O)NC(C)(C)C)N(C)Cc1cccc(O)c1`, the “% Inhibition” value was -11% and the Z score was 1.21. `CC[C@H]1[C@H](NC2CCN(Cc3ccccc3)CC2)[C@H]2CCO[C@H]21` was tested, and the “% Inhibition” value was -2% and the Z score was 0.34. With `O=C(c1cccnc1)N1CCC2(CC1)NCCc1c2[nH]c2ccccc12` the “% Inhibition” value was -15% and the Z score was 1.99. In the case of `CC(C)N(C)C(=O)CN1CCC[C@H](N2CCCCCC2)C1`, the “% Inhibition” value is reported as -13% and the Z score is reported as 1.25. `Cc1nc(-c2ccc(N3CCN(C(=O)c4ccco4)CC3)nc2)sc1C` was tested, and the “% Inhibition” value was 12% and the Z score was -2.1. In the case of `O=C(Cc1ccsc1)N1CCN(C(=O)C2CCC2)[C@H]2CS(=O)(=O)C[C@H]21`, the “% Inhibition” value is reported as -9% and the Z score is reported as 1.74. With `Cc1ccc(CNc2ccc(C(=O)NCc3cccc(F)c3)cc2S(=O)(=O)N2CCOCC2)cc1` the “% Inhibition” value was -13% and the Z score was 2.5. In the case of `COc1nc(OC)nc(-c2cccc(-n3cccn3)c2)n1`, the “% Inhibition” value is reported as -8% and the Z score is reported as 1.23. For `COc1cccc(CNc2cccc(Cn3nc(C)nc3C)c2)n1`, the “% Inhibition” value was 1% and the Z score was -0.11. `Cc1occc1C(=O)Nc1ccc(C(=O)N2CCCCC2)c(Cl)c1` was tested, and the “% Inhibition” value was 7% and the Z score was -1.25. In the case of `Cc1ccnc2ccc(C(=O)N3CC(S(=O)(=O)CC(C)C)C3)cc12`, the “% Inhibition” value is reported as -12% and the Z score is reported as 1.59. For `O=C(O)Cn1ccc([C@H]2CCCN(Cc3ccc(Cl)c(Cl)c3)C2)n1`, the “% Inhibition” value was -6% and the Z score was 1.17. With `Cc1ccc(CNC(=O)NCC2CCC(O)C2)s1` (stereo not drawn) the “% Inhibition” value was -9% and the Z score was 0.94. In the case of `O=C([C@H]1CCOC1)N1CCC(Cc2ccc(COc3ccncc3)cc2)CC1`, the “% Inhibition” value is reported as -14% and the Z score is reported as 2.66. `CC(C)NC(=O)c1cccnc1Oc1cccc(NS(=O)(=O)c2ccc(F)cc2)c1` was tested, and the “% Inhibition” value was -2% and the Z score was 0.41. With `O=C(NCCCNc1ccccc1)Nc1ccncc1F` the “% Inhibition” value was -4% and the Z score was 0.83. With `O=C(Nc1ccc2c(c1)C(O)=Nc1cccnc1O2)c1cccc(F)c1` the “% Inhibition” value was 15% and the Z score was -1.61. For `Fc1ccc(C2CCCC2NCCCn2ccnc2)cc1` (stereo not drawn), the “% Inhibition” value was -6% and the Z score was 0.53.
